# Measured values taken from the antibiotic and cytotoxicity screens of Wong et al. (2023).
# The list shows a part of the results.
# Test system: HSkMC (human skeletal muscle cells)
# Assay: cytotoxicity call (relative viability < 0.9)
# Settings: 10 µM
row,SMILES,cytotoxicity call
1,C[C@@H]1CN([C@H](C)CO)C(=O)c2cccc(NC(=O)c3nc4ccccc4s3)c2O[C@H]1CN(C)C(=O)Nc1ccc(F)cc1,inactive
2,CC(C)NC(=O)Nc1ccc2c(c1)C(=O)N(C)[C@@H]1CC[C@H](CC(=O)NCc3ccc(F)cc3)O[C@H]1CO2,inactive
3,COc1ccc(NC(=O)Nc2ccc3c(c2)CC(=O)N([C@H](C)CO)C[C@@H](C)[C@H](CN(C)C(=O)Nc2cccc4ccccc24)O3)cc1,inactive
4,CC(C)(O/N=C(\C(=O)N[C@@H]1C(=O)N2C(C(=O)O)=C(C[N+]3(CCNC(=O)c4ccc(O)c(O)c4Cl)CCCC3)CS[C@H]12)c1csc(N)n1)C(=O)O,inactive
5,C[C@H](CO)N1C[C@H](C)[C@H](CN(C)S(C)(=O)=O)Oc2ccc(NC(=O)Nc3ccc(C(F)(F)F)cc3)cc2CC1=O,inactive
6,CC(C)(C)c1ccc2c(c1)O[C@H](C(=O)N/N=C/c1ccc[nH]1)CO2.CC(C)(C)c1ccc2c(c1)O[C@H](C(=O)N/N=C\c1ccc[nH]1)CO2,inactive
7,CO[C@H]1CN(C)C(=O)c2ccc(NC(=O)Nc3cccc(F)c3)cc2OC[C@H](C)N(C(=O)Nc2c(C)noc2C)C[C@@H]1C,inactive
8,C[C@H]1CCCCO[C@H](CN(C)C(=O)Nc2ccc3c(c2)OCO3)[C@@H](C)CN([C@@H](C)CO)C(=O)c2cc(NC(=O)Nc3cccc4ccccc34)ccc2O1,inactive
9,C[C@H](CO)N1C[C@H](C)[C@@H](CN(C)S(=O)(=O)c2ccccc2C#N)OCc2cn(nn2)CCCC1=O,inactive

# Test system: HepG2
# Assay: cytotoxicity call (relative viability < 0.9)
# Settings: 10 µM
row,SMILES,cytotoxicity call
1,CC(C)(Oc1ccc(CCNC(=O)c2ccc(Cl)cc2)cc1)C(=O)O,inactive
2,C[C@H](CO)N1C[C@H](C)[C@@H](CN(C)Cc2ccc(-c3ccccc3)cc2)Oc2ccc(NC(=O)NC3CCCCC3)cc2C1=O,inactive
3,Cc1ccc(S(=O)(=O)N(C)C[C@@H]2Oc3c(NS(=O)(=O)c4ccc(F)cc4)cccc3C(=O)N([C@H](C)CO)C[C@H]2C)cc1,inactive
4,C[C@H](CO)N1C[C@H](C)[C@H](CN(C)C(=O)Nc2ccc3c(c2)OCO3)Oc2ccc(NC(=O)c3ccncc3)cc2CC1=O,inactive
5,COc1ccc(NC(=O)N(C)C[C@@H]2Oc3ccc(NC(=O)C4CC4)cc3CC(=O)N([C@@H](C)CO)C[C@H]2C)cc1,inactive
6,C[C@H]1CN([C@@H](C)CO)C(=O)Cc2cc(NC(=O)Nc3ccc(C(F)(F)F)cc3)ccc2O[C@@H]1CN(C)Cc1ccc2c(c1)OCO2,inactive
7,C[C@H](CO)N1C[C@H](C)[C@@H](CN(C)C(=O)Nc2ccc(C(F)(F)F)cc2)Oc2ccc(NC(=O)NC3CCCCC3)cc2C1=O,inactive
8,C[C@@H]1CN([C@@H](C)CO)C(=O)c2cc(NC(=O)c3ccncc3)ccc2O[C@@H](C)CCCCO[C@@H]1CN(C)Cc1ccc(C(F)(F)F)cc1,inactive
9,CC(C)NC(=O)N[C@H]1C=C[C@H](CC(=O)NCCN2CCCC2)O[C@@H]1CO,inactive
10,C[C@H]1CN([C@@H](C)CO)S(=O)(=O)c2ccc(C#CC3CC3)cc2O[C@H]1CN(C)C(=O)Cc1ccncc1,inactive
11,C[C@@H]1CN([C@@H](C)CO)C(=O)c2cc(NC(=O)Nc3ccccc3)ccc2O[C@@H](C)CCCCO[C@H]1CN(C)S(=O)(=O)c1cccs1,inactive
12,C[C@@H]1CCCCO[C@@H](CN(C)C(=O)Nc2ccc3c(c2)OCO3)[C@H](C)CN([C@H](C)CO)C(=O)c2cc(NS(=O)(=O)c3ccc(F)cc3)ccc2O1,inactive
13,C[C@H]1CCCCO[C@H](CN(C)Cc2ccc(Cl)c(Cl)c2)[C@@H](C)CN([C@@H](C)CO)C(=O)c2cc(NS(=O)(=O)c3ccccc3)ccc2O1,active
14,CC(C)NC(=O)N(C)C[C@@H]1Oc2ccc(NC(=O)CCCN(C)C)cc2CC(=O)N([C@@H](C)CO)C[C@H]1C,inactive
15,C[C@H]1CN([C@@H](C)CO)C(=O)CCCn2cc(nn2)CO[C@H]1CN(C)C(=O)Nc1ccc(C(C)(C)C)cc1,inactive
16,CC(C)NC(=O)Nc1ccc2c(c1)CC(=O)N([C@@H](C)CO)C[C@@H](C)[C@@H](CN(C)S(=O)(=O)c1cccs1)O2,active
17,C[C@@H]1CN([C@@H](C)CO)C(=O)c2cc(C#CCN(C)C)cnc2O[C@H]1CN(C)C(=O)CN1CCOCC1,inactive
18,COc1ccccc1NC(=O)N(C)C[C@H]1Oc2ncc(C#CCN(C)C)cc2C(=O)N([C@@H](C)CO)C[C@@H]1C,inactive
19,C[C@H]1CN([C@@H](C)CO)C(=O)Cc2cc(NC(=O)Nc3cccc4ccccc34)ccc2O[C@@H]1CN(C)Cc1ccc(C(=O)O)cc1,inactive
20,COc1ccc(S(=O)(=O)Nc2ccc3c(c2)C(=O)N([C@H](C)CO)C[C@@H](C)[C@@H](CN(C)Cc2ccc(-c4ccccc4)cc2)O3)cc1,active

row,SMILES,cytotoxicity call
1,COc1ccc(S(=O)(=O)Nc2ccc3c(c2)C(=O)N([C@@H](C)CO)C[C@@H](C)[C@H](CN(C)Cc2ccccc2)OCCCC[C@H](C)O3)cc1,inactive
2,Cn1c(=O)c2c(nc(N3CCOCC3)n2CCN)n(C)c1=O,inactive
3,C[C@H](CO)N1C[C@H](C)[C@H](CN(C)C(=O)Nc2ccccc2)Oc2c(NS(=O)(=O)c3cn(C)cn3)cccc2C1=O,inactive
4,NCC[C@H]1CC[C@@H](NC(=O)Nc2ccc(F)cc2)[C@H](CO)O1,inactive
5,Cl.Clc1ccc2nsnc2c1NC1=NCCN1,inactive
6,NCC1CCOCC1,inactive
7,C[C@@H]1CCCCO[C@@H](CN(C)C(=O)C2CCCCC2)[C@H](C)CN([C@@H](C)CO)C(=O)c2cc(NC(=O)Nc3ccc(F)cc3)ccc2O1,inactive
8,Cn1c(=O)c2cc(S(=O)(=O)NCCC(=O)NC3CCCC3)ccc2n(C)c1=O,active
9,COc1cccc(C#Cc2ccc3c(c2)O[C@@H](CN(C)C(=O)CN2CCOCC2)[C@H](C)CN([C@H](C)CO)S3(=O)=O)c1,inactive
10,Nc1ccc2c(c1)OCO2,inactive
11,COc1ccc(S(=O)(=O)N(C)C[C@@H]2Oc3ccc(NS(=O)(=O)c4ccccc4)cc3CC(=O)N([C@H](C)CO)C[C@@H]2C)cc1,inactive
12,C[C@@H]1CN([C@H](C)CO)C(=O)c2cccc(NC(=O)c3nc4ccccc4s3)c2O[C@H]1CN(C)C(=O)Nc1ccc(F)cc1,inactive
13,CC(C)NC(=O)Nc1ccc2c(c1)C(=O)N(C)[C@@H]1CC[C@H](CC(=O)NCc3ccc(F)cc3)O[C@H]1CO2,inactive
14,COc1ccc(NC(=O)Nc2ccc3c(c2)CC(=O)N([C@H](C)CO)C[C@@H](C)[C@H](CN(C)C(=O)Nc2cccc4ccccc24)O3)cc1,inactive
15,CC(C)(O/N=C(\C(=O)N[C@@H]1C(=O)N2C(C(=O)O)=C(C[N+]3(CCNC(=O)c4ccc(O)c(O)c4Cl)CCCC3)CS[C@H]12)c1csc(N)n1)C(=O)O,inactive
16,C[C@H](CO)N1C[C@H](C)[C@H](CN(C)S(C)(=O)=O)Oc2ccc(NC(=O)Nc3ccc(C(F)(F)F)cc3)cc2CC1=O,inactive
17,CC(C)(C)c1ccc2c(c1)O[C@H](C(=O)N/N=C/c1ccc[nH]1)CO2.CC(C)(C)c1ccc2c(c1)O[C@H](C(=O)N/N=C\c1ccc[nH]1)CO2,inactive
18,CO[C@H]1CN(C)C(=O)c2ccc(NC(=O)Nc3cccc(F)c3)cc2OC[C@H](C)N(C(=O)Nc2c(C)noc2C)C[C@@H]1C,inactive
19,C[C@H]1CCCCO[C@H](CN(C)C(=O)Nc2ccc3c(c2)OCO3)[C@@H](C)CN([C@@H](C)CO)C(=O)c2cc(NC(=O)Nc3cccc4ccccc34)ccc2O1,inactive
20,C[C@H](CO)N1C[C@H](C)[C@@H](CN(C)S(=O)(=O)c2ccccc2C#N)OCc2cn(nn2)CCCC1=O,inactive
